Assay [1] deals with T1, ER-SPTLC2^FLAG (SPTLC1 1-49 fused to SPTLC2 103-562, C-terminal 3xFLAG), in Flp-In T-REx 293 SPTLC2-KO cells (human) (UniProt O15269+O15270).
T1 sequence: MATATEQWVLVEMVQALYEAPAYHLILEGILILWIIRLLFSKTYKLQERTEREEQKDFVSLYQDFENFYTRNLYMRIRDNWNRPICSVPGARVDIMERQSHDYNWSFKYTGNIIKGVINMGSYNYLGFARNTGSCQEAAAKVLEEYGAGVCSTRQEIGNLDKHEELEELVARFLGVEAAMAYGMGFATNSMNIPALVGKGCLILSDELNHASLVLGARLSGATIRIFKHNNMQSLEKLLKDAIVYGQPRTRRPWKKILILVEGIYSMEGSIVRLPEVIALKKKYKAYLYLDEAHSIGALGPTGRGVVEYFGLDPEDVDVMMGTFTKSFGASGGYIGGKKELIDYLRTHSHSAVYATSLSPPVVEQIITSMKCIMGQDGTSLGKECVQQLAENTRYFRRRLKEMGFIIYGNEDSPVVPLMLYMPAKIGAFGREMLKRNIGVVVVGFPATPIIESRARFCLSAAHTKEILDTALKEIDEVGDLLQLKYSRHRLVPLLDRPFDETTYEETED
The assay can be described thus: co-IP; heavy membrane fractions of Flp-In T-REx 293 SPTLC2-KO cells with or without WT-, ER- or OM-SPTLC2^FLAG, solubilised with digitonin, FLAG-immunoprecipitation on anti-FLAG M2 beads, eluted with Laemmli buffer, immunoblotting. (A western blot detects proteins with antibodies after separation by electrophoresis.)

Sequences of proteins named here, by UniProt entry; tags and fusion partners are left off.
UniProt Q15388: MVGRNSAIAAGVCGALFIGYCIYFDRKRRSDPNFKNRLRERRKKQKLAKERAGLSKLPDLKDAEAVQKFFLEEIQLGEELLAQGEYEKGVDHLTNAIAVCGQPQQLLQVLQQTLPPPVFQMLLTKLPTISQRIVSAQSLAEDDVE

For assay [2], the target named is T2, OM-SPTLC2^FLAG (mAKAP1 1-31 + linker fused to SPTLC2 103-562, C-terminal 3xFLAG), in Flp-In T-REx 293 SPTLC2-KO cells (UniProt O15270).
T2 sequence: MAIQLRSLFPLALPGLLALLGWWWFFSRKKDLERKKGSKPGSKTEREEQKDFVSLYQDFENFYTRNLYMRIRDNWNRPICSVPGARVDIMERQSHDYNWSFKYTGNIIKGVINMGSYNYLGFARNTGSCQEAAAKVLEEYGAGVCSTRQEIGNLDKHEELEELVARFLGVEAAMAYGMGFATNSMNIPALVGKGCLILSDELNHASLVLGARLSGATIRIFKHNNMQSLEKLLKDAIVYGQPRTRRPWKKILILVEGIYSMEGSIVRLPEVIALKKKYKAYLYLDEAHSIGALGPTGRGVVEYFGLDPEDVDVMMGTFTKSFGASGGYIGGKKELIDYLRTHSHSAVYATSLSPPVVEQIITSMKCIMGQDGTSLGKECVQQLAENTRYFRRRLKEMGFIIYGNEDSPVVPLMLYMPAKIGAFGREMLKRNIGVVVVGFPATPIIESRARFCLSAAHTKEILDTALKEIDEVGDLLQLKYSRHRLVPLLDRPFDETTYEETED
The description is as above.

The target in assay [3] is T3, SPTLC2^FLAG (WT-SPTLC2 with C-terminal 3xFLAG), in Flp-In T-REx 293 SPTLC2-KO cells (human) (UniProt O15270).
T3 sequence: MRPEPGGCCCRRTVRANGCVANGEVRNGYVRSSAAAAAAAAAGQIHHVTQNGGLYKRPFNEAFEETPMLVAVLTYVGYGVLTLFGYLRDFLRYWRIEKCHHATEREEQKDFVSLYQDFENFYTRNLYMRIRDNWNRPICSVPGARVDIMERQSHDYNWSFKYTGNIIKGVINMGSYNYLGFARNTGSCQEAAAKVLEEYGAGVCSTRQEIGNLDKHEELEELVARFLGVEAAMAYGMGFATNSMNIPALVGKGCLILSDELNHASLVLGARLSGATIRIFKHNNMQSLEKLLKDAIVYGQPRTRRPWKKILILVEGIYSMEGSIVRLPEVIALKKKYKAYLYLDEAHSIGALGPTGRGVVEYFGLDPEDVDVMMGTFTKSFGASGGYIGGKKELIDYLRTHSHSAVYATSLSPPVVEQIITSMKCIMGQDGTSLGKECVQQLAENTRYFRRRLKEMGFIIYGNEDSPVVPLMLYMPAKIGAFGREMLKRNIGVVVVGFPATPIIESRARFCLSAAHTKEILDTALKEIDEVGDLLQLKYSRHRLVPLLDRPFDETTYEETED
The description is as above.

The target in assay [4] is T4, SPTLC2, endogenous in Flp-In T-REx 293 cells (human (endogenous in Flp-In T-REx 293)) (UniProt O15270).
T4 sequence: T3 sequence
Nature of the assay: native gel or EMSA; blue native PAGE (4-13% gradient gel) of digitonin-solubilised heavy membrane fractions from Flp-In T-REx 293 control, SPTLC1-KO, SPTLC2-KO and rescue cells; immunoblotted with anti-SPTLC1 and anti-SPTLC2. On the technique in general: Mobility shift assays separate free from complexed probe on a gel.

Assay [5] has as its target T3, SPTLC2^FLAG (WT-SPTLC2 with C-terminal 3xFLAG), in Flp-In T-REx 293 SPTLC2-KO cells (human). Described as above.
The target in assay [6] is T5, SPTLC2, endogenous in mouse liver (mouse (endogenous in liver)) (UniProt P97363).
T5 sequence: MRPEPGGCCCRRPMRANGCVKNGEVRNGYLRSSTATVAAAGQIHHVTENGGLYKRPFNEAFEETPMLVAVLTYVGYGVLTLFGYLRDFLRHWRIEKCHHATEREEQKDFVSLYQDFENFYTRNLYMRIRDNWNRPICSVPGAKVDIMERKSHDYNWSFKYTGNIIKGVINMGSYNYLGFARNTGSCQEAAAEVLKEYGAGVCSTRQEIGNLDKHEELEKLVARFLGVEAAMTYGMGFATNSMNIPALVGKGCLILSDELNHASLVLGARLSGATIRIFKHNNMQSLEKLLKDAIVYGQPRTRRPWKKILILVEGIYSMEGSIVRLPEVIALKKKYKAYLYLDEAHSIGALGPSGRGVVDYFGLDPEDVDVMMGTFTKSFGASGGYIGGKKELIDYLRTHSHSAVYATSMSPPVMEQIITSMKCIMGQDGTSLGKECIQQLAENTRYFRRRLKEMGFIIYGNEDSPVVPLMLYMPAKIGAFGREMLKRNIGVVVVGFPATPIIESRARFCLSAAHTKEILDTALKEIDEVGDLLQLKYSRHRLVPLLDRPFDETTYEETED
The assay can be described thus: native gel or EMSA; blue native PAGE of mouse liver light and heavy membrane fractions; immunoblotted with anti-SPTLC1 and anti-SPTLC2.

These are yes or no findings as the source states them, for the method shown. For some assays here: Binding seen in cells or lysates may run through a third protein. Some entries that bind do so weakly or less than the wild type. For some assays here: Tags and fused reporters may be left off the sequences shown.

On to TOMM20 (from UniProt Q15388 1-145), for which the binding entry was “no binding” in assay [1], “binds” in assay [2] and “binds” in assay [3].

B1: TOMM40 (protein, UniProt O96008 1-361)
chain: MGNVLAASSPPAGPPPPPAPALVGLPPPPPSPPGFTLPPLGGSLGAGTSTSRSSERTPGAATASASGAAEDGACGCLPNPGTFEECHRKCKELFPIQMEGVKLTVNKGLSNHFQVNHTVALSTIGESNYHFGVTYVGTKQLSPTEAFPVLVGDMDNSGSLNAQVIHQLGPGLRSKMAIQTQQSKFVNWQVDGEYRGSDFTAAVTLGNPDVLVGSGILVAHYLQSITPCLALGGELVYHRRPGEEGTVMSLAGKYTLNNWLATVTLGQAGMHATYYHKASDQLQVGVEFEASTRMQDTSVSFGYQLDLPKANLLFKGSVDSNWIVGATLEKKLPPLPLTLALGAFLNHRKNKFQCGFGLTIG
As for B1, the binding entry in assay [1] was “no binding”; in assay [2], “binds”; in assay [3], “binds”.

B2: SPTLC1, endogenous in Flp-In T-REx 293 cells (enzyme, UniProt O15269 1-473)
chain: MATATEQWVLVEMVQALYEAPAYHLILEGILILWIIRLLFSKTYKLQERSDLTVKEKEELIEEWQPEPLVPPVPKDHPALNYNIVSGPPSHKTVVNGKECINFASFNFLGLLDNPRVKAAALASLKKYGVGTCGPRGFYGTFDVHLDLEDRLAKFMKTEEAIIYSYGFATIASAIPAYSKRGDIVFVDRAACFAIQKGLQASRSDIKLFKHNDMADLERLLKEQEIEDQKNPRKARVTRRFIVVEGLYMNTGTICPLPELVKLKYKYKARIFLEESLSFGVLGEHGRGVTEHYGINIDDIDLISANMENALASIGGFCCGRSFVIDHQRLSGQGYCFSASLPPLLAAAAIEALNIMEENPGIFAVLKEKCGQIHKALQGISGLKVVGESLSPAFHLQLEESTGSREQDVRLLQEIVDQCMNRSIALTQARYLEKEEKCLPPPSIRVVVTVEQTEEELERAASTIKEVAQAVLL
In the case of B2, the binding result in assay [4], in assay [5], in assay [1], in assay [2] and in assay [3] was “binds” in each case.

B3: SPTLC1, untagged, re-expressed in Flp-In T-REx 293 SPTLC1-KO cells (enzyme, UniProt O15269 1-473)
chain: B2 chain
For B3, the binding result in assay [4] was “binds”.

B4: GK (protein, UniProt P32189 1-559)
chain: MAASKKAVLGPLVGAVDQGTSSTRFLVFNSKTAELLSHHQVEIKQEFPREGWVEQDPKEILHSVYECIEKTCEKLGQLNIDISNIKAIGVSNQRETTVVWDKITGEPLYNAVVWLDLRTQSTVESLSKRIPGNNNFVKSKTGLPLSTYFSAVKLRWLLDNVRKVQKAVEEKRALFGTIDSWLIWSLTGGVNGGVHCTDVTNASRTMLFNIHSLEWDKQLCEFFGIPMEILPNVRSSSEIYGLMKISHSVKAGALEGVPISGCLGDQSAALVGQMCFQIGQAKNTYGTGCFLLCNTGHKCVFSDHGLLTTVAYKLGRDKPVYYALEGSVAIAGAVIRWLRDNLGIIKTSEEIEKLAKEVGTSYGCYFVPAFSGLYAPYWEPSARGIICGLTQFTNKCHIAFAALEAVCFQTREILDAMNRDCGIPLSHLQVDGGMTSNKILMQLQADILYIPVVKPSMPETTALGAAMAAGAAEGVGVWSLEPEDLSAVTMERFEPQINAEESEIRYSTWKKAVMKSMGWVTTQSPESGDPSIFCSLPLGFFIVSSMVMLIGARYISGIP
Turning to B4, the binding entry in assay [3] is reported as “binds”.

B5: SPTLC1, endogenous in mouse liver (enzyme, UniProt O35704 1-473)
chain: MATVAEQWVLVEMVQALYEAPAYHLILEGILILWIIRLVFSKTYKLQERSDLTAKEKEELIEEWQPEPLVPPVSKNHPALNYNIVSGPPTHNIVVNGKECVNFASFNFLGLLANPRVKATAFSSLKKYGVGTCGPRGFYGTFDVHLDLEERLAKFMKTEEAIIYSYGFSTIASAIPAYSKRGDIIFVDSAACFAIQKGLQASRSDIKLFKHNDVADLERLLKEQEIEDQKNPRKARVTRRFIVVEGLYMNTGTICPLPELVKLKYKYKARIFLEESLSFGVLGEHGRGVTEHYGISIDDIDLISANMENALASVGGFCCGRSFVVDHQRLSGQGYCFSASLPPLLAAAAIEALNIMEENPDIFAVLKKKCQNIHKSLQGVSGLKVVGESLSPALHLQLEESTGSREKDVKLLQAIVDQCMDKGIALTQARYLDKEEKCLPPPSIRVVVTVEQTEEELQRAASTIREAAQAVLL
With B5, the binding result in assay [6] was “binds”.

For the origin of these results see paper PMC8605320.
